This is an account of results in the antibiotic and cytotoxicity screens of Wong et al. (2023).

The structures appear in SMILES notation. The list shows a part of the results.

For this experiment, the system named is S. aureus RN4220. Briefly: growth inhibition call (relative growth <= 0.2). The settings on record: 50 µM.
With `C[C@H](CO)N1C[C@H](C)[C@H](CN(C)C(=O)Nc2ccc(C(C)(C)C)cc2)OCc2cnnn2CCCC1=O`, the growth inhibition call was “inactive”.
Under `C[C@H]1CN([C@@H](C)CO)C(=O)Cc2cc(NS(C)(=O)=O)ccc2O[C@@H]1CN(C)C(=O)Nc1ccc(F)cc1` stands “inactive”; under `C[C@@H]1CN([C@@H](C)CO)C(=O)Cc2cc(N(C)C)ccc2O[C@@H]1CN(C)S(=O)(=O)c1cn(C)cn1`, “inactive”; under `O=C(C[C@H]1CC[C@H]2[C@@H](COC[C@@H](O)CN2S(=O)(=O)c2ccc(Cl)cc2)O1)NCC1CCCCC1`, “inactive”.
For `COc1ccc(NC(=O)Nc2cccc3c2O[C@@H](CN(C)CC2CCCCC2)[C@@H](C)CN([C@H](C)CO)C3=O)cc1`, the growth inhibition call was “inactive”.
As for `CC(C)(Sc1ccncc1-c1ccc(C#N)c2ccccc12)C(=O)O`, the growth inhibition call was “inactive”.
As for `CC(=O)NCCCC[C@@H]1NC(=O)[C@H]2C[C@@H](C(=O)O)[C@@H](c3ccc(O)cc3)N2C1=O`, the growth inhibition call is “inactive”.
As for `C[C@@H]1CCCCO[C@@H](CN(C)CC2CC2)[C@H](C)CN([C@@H](C)CO)C(=O)c2cc(NC(=O)Nc3ccc(C(F)(F)F)cc3)ccc2O1`, the growth inhibition call was “inactive”.
Regarding `C=CCNC(=O)[C@H]1[C@@H]2C(=O)O[C@@H](c3ccccc3)[C@@H](c3ccccc3)N2[C@@H](c2ccc(OCCO)cc2)[C@]12C(=O)Nc1ccc(C#Cc3ccc(OC)cc3)cc12`, the growth inhibition call was “inactive”.
Consider `CN1CCN(C(=O)C[C@@H]2CC[C@H]3[C@@H](COC[C@H](O)CN3CC3CCCC3)O2)CC1`, for which the growth inhibition call was “inactive”.
As to `Cc1noc(C)c1S(=O)(=O)Nc1ccc2c(c1)C(=O)N([C@H](C)CO)C[C@H](C)[C@@H](CN(C)Cc1ccc(Cl)c(Cl)c1)OCCCC[C@H](C)O2`, the growth inhibition call is “inactive”.
On to `CCNC(=O)[C@@H]1[C@@H](CO)[C@@H]2Cn3c(ccc(-c4ccccc4OC)c3=O)[C@@H]2N1S(C)(=O)=O`, for which the growth inhibition call was “inactive”.
The value for `O=c1[nH]c(=O)n(C2CC(O)C(CO)O2)cc1F` (stereo not given) was “inactive”; that for `C[C@H](CO)N1C[C@H](C)[C@@H](CN(C)S(C)(=O)=O)Oc2ccc(NC(=O)Nc3ccc(C(F)(F)F)cc3)cc2C1=O` was “inactive”; that for `O=C(C[C@H]1CC[C@H](NS(=O)(=O)c2ccccc2F)[C@H](CO)O1)NCCCN1CCOCC1` was “inactive”.
As to `C[C@H]1CN([C@@H](C)CO)C(=O)c2cccc(NC(=O)Nc3ccc(F)cc3)c2O[C@@H]1CN(C)Cc1ccc(Oc2ccccc2)cc1`, the growth inhibition call is “inactive”.
On to `Cc1ccc(S(=O)(=O)Nc2ccc3c(c2)CC(=O)N([C@H](C)CO)C[C@H](C)[C@@H](CN(C)C(=O)NC(C)C)O3)cc1`, for which the growth inhibition call was “inactive”.
The value for `C[C@@H]1CN([C@H](C)CO)C(=O)c2c(c3ccccc3n2C)-c2ccccc2CO[C@H]1CN(C)C(=O)Nc1ccc2c(c1)OCO2` was “inactive”.
Turning to `Cc1cccc(/C=C2\CS/C(=C\c3cccc(C)c3)C2=O)c1`, the growth inhibition call was “inactive”.
`COc1ccccc1-c1ccc2c(c1)O[C@H](CN(C)S(=O)(=O)c1ccccc1)[C@@H](C)CN([C@@H](C)CO)S2(=O)=O`: the growth inhibition call is “inactive”.
Consider `C[C@H](CO)N1C[C@H](C)[C@@H](CN(C)Cc2cccc(C(=O)O)c2)OCc2ccccc2-c2c(n(C)c3ccccc23)C1=O`, for which the growth inhibition call was “inactive”.
For `COc1ccc(S(=O)(=O)N(C)C[C@@H]2Oc3ccc(NC(=O)CCCN(C)C)cc3C(=O)N([C@@H](C)CO)C[C@@H]2C)cc1`, the growth inhibition call is “inactive”.
As to `C[C@@H]1CCCCO[C@@H](CN(C)C(=O)Cc2ccccc2)[C@H](C)CN([C@H](C)CO)C(=O)c2cc(NC(=O)Cc3ccccc3)ccc2O1`, the growth inhibition call was “inactive”.
As to `O=C(NCCCN1CCOCC1)[C@H]1[C@@H]2C=C[C@@]3(CN(Cc4cccs4)C(=O)[C@@H]13)O2`, the growth inhibition call was “inactive”.
`NC(=O)c1ncn([C@H]2O[C@@H](COP(=O)(O)O)[C@@H](O)[C@@H]2O)c1N`: the growth inhibition call is “inactive”.
Turning to `O=C(C1=C[C@@H](c2ccsc2)C[C@@H](OCCCCO)O1)N1CCN(Cc2ccc3c(c2)OCO3)CC1`, the growth inhibition call was “inactive”.
The value for `C[C@H]1CN([C@@H](C)CO)C(=O)c2cc(NC(=O)c3ccncc3)ccc2O[C@@H]1CN(C)C(=O)Nc1ccc2c(c1)OCO2` was “inactive”; that for `CC=Cc1ccc2n(c1=O)C[C@H]1[C@H](CO)[C@@H](C(=O)NC3CCC3)[C@@H]2N1S(=O)(=O)c1cn(C)cn1` was “inactive”.
In the case of `COc1ccc(NC(=O)N(C)C[C@H]2Oc3ncc(C#CCN(C)C)cc3C(=O)N([C@@H](C)CO)C[C@H]2C)cc1`, the growth inhibition call is “inactive”.
With `C[C@H]1CN([C@@H](C)CO)C(=O)c2cccc(NS(=O)(=O)c3cn(C)cn3)c2O[C@H]1CN(C)S(=O)(=O)c1cccs1`, the growth inhibition call is “inactive”.
